In PMC4336329 (PLoS ONE, 2015):
The campaign covered roughly 310,000 compounds. About 2,200 (0.71%) showed an effect of 50% or more. The effect is printed as a negative number. This is one part of the list.

Molecular target: human ether-à-go-go-related gene (hERG) potassium channel (human, UniProt Q12809)
Test: primary screen, population patch clamp on CHO cells stably expressing hERG

Sequence of human ether-à-go-go-related gene (hERG) potassium channel (Q12809 whole entry, looked up): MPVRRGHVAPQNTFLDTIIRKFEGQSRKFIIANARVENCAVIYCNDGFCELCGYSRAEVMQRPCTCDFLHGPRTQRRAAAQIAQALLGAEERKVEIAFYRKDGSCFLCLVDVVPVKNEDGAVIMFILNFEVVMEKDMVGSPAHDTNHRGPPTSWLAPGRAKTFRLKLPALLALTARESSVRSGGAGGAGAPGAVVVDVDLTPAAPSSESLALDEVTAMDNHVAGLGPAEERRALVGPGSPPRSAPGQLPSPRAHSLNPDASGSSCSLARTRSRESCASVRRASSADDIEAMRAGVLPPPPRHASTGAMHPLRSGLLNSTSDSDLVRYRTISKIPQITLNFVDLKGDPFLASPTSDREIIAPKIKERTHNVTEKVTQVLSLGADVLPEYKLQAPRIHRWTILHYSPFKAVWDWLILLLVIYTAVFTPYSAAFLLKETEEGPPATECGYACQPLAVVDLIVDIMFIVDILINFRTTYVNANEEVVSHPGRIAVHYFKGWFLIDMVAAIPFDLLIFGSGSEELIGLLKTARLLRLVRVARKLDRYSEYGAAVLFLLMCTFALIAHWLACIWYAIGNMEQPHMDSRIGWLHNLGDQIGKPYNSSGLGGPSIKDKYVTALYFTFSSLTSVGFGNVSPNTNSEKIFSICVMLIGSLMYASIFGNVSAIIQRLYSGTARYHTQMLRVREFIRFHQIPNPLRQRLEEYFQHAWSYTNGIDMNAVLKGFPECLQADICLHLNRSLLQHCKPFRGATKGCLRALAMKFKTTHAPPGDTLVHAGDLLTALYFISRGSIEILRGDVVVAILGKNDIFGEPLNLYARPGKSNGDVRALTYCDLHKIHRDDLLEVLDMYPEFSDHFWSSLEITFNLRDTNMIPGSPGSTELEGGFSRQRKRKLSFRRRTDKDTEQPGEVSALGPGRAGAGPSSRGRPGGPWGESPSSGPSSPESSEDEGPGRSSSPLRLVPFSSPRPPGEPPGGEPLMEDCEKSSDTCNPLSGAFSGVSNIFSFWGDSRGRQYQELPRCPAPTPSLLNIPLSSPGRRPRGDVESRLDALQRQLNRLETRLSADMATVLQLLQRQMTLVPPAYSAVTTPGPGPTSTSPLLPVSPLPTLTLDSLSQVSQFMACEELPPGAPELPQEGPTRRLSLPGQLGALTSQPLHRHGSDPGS

Row | SMILES | hERG current change (%, negative = inhibition) at 1uM [%]
1 | Cc1ccccc1-c1nnc(-c2ccccc2C)o1 | 12.8
2 | CC(/C=C/c1ccccc1)=N\NC(=S)NC(C)C | 8.31
3 | CCc1nc2sccc2c(=O)[nH]1 | 11.9
4 | O=C1c2cccc3cccc(c23)C(=O)N1/N=C/c1ccc(O)cc1O | 6.22
5 | CN(C)CCCN(C(=O)c1ccc(S(=O)(=O)N(C)C)cc1)c1nc2cc3c(cc2s1)OCO3.Cl | 16.8
6 | COCCN1Cc2cccc(C(=O)NCc3cccnc3)c2C1=O | 6.37
7 | CCCCN(C(=O)COC(=O)COc1c(C)cc(C)cc1C)c1c(N)n(CCC)c(=O)[nH]c1=O | 7.95
8 | COc1ccc([N+](=O)[O-])cc1NC(=O)C(C)OC(=O)C1CCC1 (stereo not drawn) | 11
9 | CCc1cc(C(=O)N/N=C/c2ccc(OC)cc2)c2ccccc2n1 | 8.3
10 | Cc1nc2ccc(CN(C)c3ccc(C(=O)N[C@@H](CCC(=O)O)C(=O)O)s3)cc2c(=O)[nH]1 | 14.6
11 | Cc1ccc(CNC(=O)c2ccc3c(c2)S(=O)(=O)c2ccccc2C3=O)cc1 | 2.33
12 | CCN1CCc2nc3ccccc3c(C(=O)Nc3ccc(C#N)cc3)c2C1 | -65.8
13 | O=C(O)C(=O)O.O=C(c1cccc(Cl)c1)N1CCN(C2CCCCCC2)CC1 | -15.4
14 | Cc1ccc(N2CC(C(=O)OCC(=O)c3ccc(C)c([N+](=O)[O-])c3)CC2=O)cc1 (stereo not drawn) | 14.3
15 | O=c1c2nnn(Cc3ccccc3)c2ncn1-c1ccccc1 | 19.3
16 | Cc1cccc(OCC(=O)O/N=C(\N)Cc2ccc([N+](=O)[O-])cc2)c1 | 3.06
17 | CCn1ncc(C2=NOC(C(=O)N3CCC(C(N)=O)CC3)C2)c1C (stereo not drawn) | 2.26
18 | COc1ccc(-c2csc(-c3cccs3)n2)c(OC)c1 | 10.2
19 | CCOC(=O)c1cc2c(=O)n3ccccc3nc2n(CCCOC)c1=NC(C)=O | -15.6
20 | CCOC(=O)c1c[nH]c(=S)n1C | 13.4
21 | CCCCn1c(SCC(=O)N2CCC(C(=O)OCC)CC2)nc2cc(S(N)(=O)=O)ccc21 | -36.1
22 | NS(=O)(=O)c1ccc(CCNc2ccnc3cc(Cl)ccc23)cc1 | 4.33

Row | SMILES | hERG current change (%, negative = inhibition) at 1uM [%]
23 | Cc1ccc(-n2c(-c3ccccc3)c[n+]3c2CCC3)cc1.[Br-] | -2.23
24 | COC(=O)c1ccc(N2CCN(S(=O)(=O)c3ccccc3)CC2)c([N+](=O)[O-])c1 | -0.0184
25 | CCc1nc(-c2ccc(-c3ccc(OC)cc3)nc2OC)no1 | 13.5
26 | COC(=O)C1CCN(C(=O)C2CCC(=O)N(CCc3cccc(F)c3)C2)CC1 (stereo not drawn) | 9.77
27 | CS(=O)(=O)N1CCC(C(=O)Nc2ccc3c(c2)OCCO3)CC1 | 7.2
28 | CN(C)c1ccc(/C=N/n2cnn(Cc3ccccc3Cl)c2=S)cc1 | 13.3
29 | CC(=O)Nc1ccc(S(=O)(=O)N(CC(=O)O)Cc2ccccc2)cc1 | 10.2
30 | COc1ccc(C)c2sc(N(CCCN(C)C)C(=O)c3ccc4c(c3)OCCO4)nc12.Cl | -16.6
31 | CC(NC(=O)COC(=O)/C=C/c1ccc(Cl)cc1)c1ccccc1 (stereo not drawn) | 8.41
32 | CCOP(=O)(OCC)C1(O)C(=O)Nc2ccc(Br)cc21 (stereo not drawn) | -0.105
33 | CC1CCN(c2c(NCC3CCC(C(=O)N4CCCC(C)C4)CC3)c(=O)c2=O)CC1 (stereo not drawn) | 10.3
34 | Cc1cc(O)c(NC(=O)c2cccc([N+](=O)[O-])c2)cc1C | 8.03
35 | CCC1=NN(C(=O)COc2ccccc2)C(O)(c2ccncc2)C1 (stereo not drawn) | 18.6
36 | CC1=Nc2ccccc2N=C(NC(=O)/C=C/C(=O)O)C1c1ccccc1 (stereo not drawn) | 7.39
37 | COc1ccc(N(CC(=O)NCc2ccncc2)S(=O)(=O)c2ccc(C)c([N+](=O)[O-])c2)cc1 | -15.1
38 | CCOC(=O)c1c(NC(=O)CN2C(=O)C(=O)N(CC(C)C)C2=O)sc(C)c1CC | 16
39 | CCc1cccc2c(C#N)cn(CC(=O)NCc3ccco3)c12 | 18.9
40 | CCOC(=O)C1=C(CN2CCN(C(=O)c3ccco3)CC2)NC(=O)NC1c1ccccc1 (stereo not drawn) | 5.9
41 | Cc1nc2ccccc2c(=O)n1NC(=O)C1CC1C (stereo not drawn) | 12.9
42 | O=C(C1COc2ccccc2O1)N1CCn2c(nc3ccccc32)C1 (stereo not drawn) | -15.7
43 | CCc1nc(N2CCN(C(=O)CCl)CC2)c2c3c(sc2n1)CC(C)CC3 (stereo not drawn) | 9.17
44 | CC(C)n1cnc2c(NCc3ccc(S(N)(=O)=O)cc3)nc(NCc3ccc(S(N)(=O)=O)cc3)nc21 | 12.9

Row | SMILES | hERG current change (%, negative = inhibition) at 1uM [%]
45 | O=C(NCC1CCCN1S(=O)(=O)c1cccs1)C(=O)Nc1ccc(F)cc1F (stereo not drawn) | 10.8
46 | O=[N+]([O-])c1ccc(Cc2nnc(-c3ccccc3Cl)o2)cc1 | 14.3
47 | O=C(NC(Cc1ccccc1)C(=O)O)/C(=C\c1ccc(F)cc1)NC(=O)c1ccco1 (stereo not drawn) | 9.24
48 | CC(=O)N1c2ccc(S(=O)(=O)NCC3CCC(C(=O)N4CCC(C)CC4)CC3)cc2CC1C (stereo not drawn) | 9.45
49 | COc1ccc(S(=O)(=O)NCCN2CCNC2=O)cc1OC | 13.6
50 | CCOC(=O)c1c(NC(=O)CSc2nnc(CNC(=O)c3ccco3)n2C)sc2c1CCC2 | 6.18
51 | O=C(COC(=O)/C=C/c1ccc(S(=O)(=O)N2CCOCC2)cc1)NCc1ccc2c(c1)OCO2 | 18.8
52 | CN(C)NC(=O)C12CCC(C)(C(=O)O1)C2(C)C (stereo not drawn) | 30.6
53 | Fc1cccc(CO/N=C/c2c(-c3ccccc3)nc3ccc(Cl)cn23)c1 | 13.8
54 | COC(=O)c1sccc1NC(=O)Nc1ccc(C)cc1C | 11.5
55 | O=c1c2ccccc2nc(CSc2ncnc3nc[nH]c23)n1-c1ccc(Cl)c(Cl)c1 | 9.51
56 | Cc1ccc(NC(=O)c2cncc(Br)c2)nc1 | 2.25
57 | CCCCCn1c(=O)c(C(=O)c2ccccc2)nc2ccccc21 | -52.5
58 | CCCCN1C[C@H](C)[C@@H](CC(=O)NCc2ccccc2)C1=O | -1.29
59 | CC(C)c1ccc(NC(=O)CCC(=O)NCc2ccco2)cc1 | 7.99
60 | COc1cccc(N=c2oc3cc(O)ccc3cc2C(=O)NCC2CCCO2)c1 (stereo not drawn) | 14.9
61 | CCOC(=O)[C@@H]1[C@H]2COc3cc(OC)ccc3[C@@H]2N2C(=O)N(c3cccc(F)c3)C(=O)[C@]12C | 7.21
62 | CC(NC(=O)C1CCCN(C(=O)c2ccc(Cl)cc2)C1)c1cccc(C(F)(F)F)c1 (stereo not drawn) | -5.71
63 | NC(=O)c1c(NC(=O)COC(=O)CSc2nnc(-c3ccc(Cl)cc3)o2)sc2c1CCC2 | 11.4
64 | CC(C)NCCOCCOc1ccccc1F.O=C(O)C(=O)O | 4.39
65 | Cc1ccc2cccc(OCc3ccccc3)c2n1 | 8.71
66 | CCC(C)NC(=O)Cn1c(=O)n(CCCCC(=O)NCc2ccco2)c(=O)c2ccccc21 (stereo not drawn) | 11.4

Row | SMILES | hERG current change (%, negative = inhibition) at 1uM [%]
67 | O=C(Nc1ncc(Cc2ccccc2Cl)s1)C1=NCCN1 | 10
68 | Cc1ccccc1C(=O)N1CCC(C(=O)Nc2ccc(S(=O)(=O)N3CCCCC3)cc2)CC1 | 3.41
69 | O=C(O)C(=O)O.O=C(c1cccnc1)N1CCN(CCCc2ccccc2)CC1 | -2.89
70 | Cc1cc(C(=O)NCc2ccccc2Br)no1 | 9.66
71 | COc1ccc(-c2ccc(=O)n(CC(=O)NCc3ccco3)n2)cc1 | 12.5
72 | CC(=O)c1nn(-c2cccc(Cl)c2)cc1C(=O)c1ccco1 | 3.39
73 | Cc1ccc(OCC(=O)Nc2ccc(S(=O)(=O)Nc3cc(C)nc(C)n3)cc2)cc1 | 16.6
74 | CCOc1ccc(S(=O)(=O)N2CCC(C(=O)N3CCCCCC3)CC2)cc1Cl | 7.05
75 | COc1ccc(/C=C\C(=O)NCC(=O)N/N=C/c2cccc(OC)c2O)cc1 | 6.06
76 | O=C(Nc1ccc(N2CCOCC2)c(Cl)c1)c1ccccc1F | 6.41
77 | S=c1nc[nH]c2c1ncn2C1CCCO1 (stereo not drawn) | 13.2
78 | O=C(O)CC(NCc1ccco1)C(=O)OCCc1ccccc1 (stereo not drawn) | 13.7
79 | CC1CN(Cc2csc(-c3ccc(Cl)cc3)n2)CC(C)O1.O=C(O)C(=O)O (stereo not drawn) | 17.7
80 | C=CCc1cccc(/C=N/NC(=O)c2ccccc2Br)c1O | -18.8
81 | CC(=O)Nc1c(O)nc(SCC(=O)Nc2sc3c(c2C#N)CCCCCC3)[nH]c1=O | 4.02
82 | CC(Sc1nnc(C2CC2)n1C)C(=O)Nc1ccc2c(c1)CCC2 (stereo not drawn) | 4.51
83 | CC(C)c1cc(CN2CCN(CCC#N)CC2)cc(C(C)C)c1O | -10.2
84 | Cc1ccc(S(=O)(=O)n2cccc2CO)cc1 | 9.97
85 | CC(=O)c1cc2c(cc1NS(=O)(=O)c1ccccc1)OCO2 | 8.87
86 | Cc1cccc(C(=O)NC(=S)N2CCN(C)CC2)c1 | -4.74
87 | CS(=O)(=O)N1CCC(C(=O)Nc2ccc(Cl)c(Cl)c2)CC1 | 15.7
